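Each compound was tested at five concentrations against cells in 96-well plates for 48 hours. GI50: concentration for 50% inhibition of growth.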 The source made the active and inactive calls. Cut-off read from the data, not from the text of the source: active = GI50 up to about 1.1 µM and inactive = higher. Peptide text beside a SMILES is read from it. * marks the point of attachment. Boc = CC(C)(C)OC(=O)*; OBn = c1ccc(CO*)cc1
These compounds were tested on NCI-H322M (assay: growth of human tumour cells (NCI), 48 h).

| Compound | GI50 |
| --- | --- |
| CC(=O)N1C(=O)/C(=C\C(=O)c2ccc(Cl)cc2)c2ccccc21 | inactive: 21.7 µM |
| N#Cc1ncn(-c2ccccc2)c1N | inactive: 36.8 µM |
| O=S(=O)(O)c1ccc(-c2nnc(-c3ccccn3)nc2-c2ccc(S(=O)(=O)O)o2)o1 | inactive: > 100 µM |
| Cc1cc(O)nc2c3c(ccc12)OC(C)(C)C=C3 | inactive: 8.18 µM |
| CCN(CC)c1nnc(CCCCCCCCc2nnc(N(CC)CC)o2)o1 | inactive: > 100 µM |
| CCOC(=O)c1c(-c2ccccc2)nc2ccccc2c1O | inactive: > 100 µM |
| Cc1cc(C)c([O-])c(-[n+]2c(-c3ccccc3)cc(-c3ccccc3)cc2-c2ccccc2)c1 | inactive: 6.22 µM |
| CC(C)c1ccc(O)c(Cc2cc(C(C)C)cc(Cc3cc(C(C)C)ccc3O)c2O)c1 | inactive: 1.84 µM |
| C=C1C(=O)O[C@H]2[C@@H](O)[C@H](C)CCC/C(C)=C/CC[C@@]3(C)O[C@@H]3C[C@@H]12 | inactive: 14.6 µM |
| O=C1c2ccccc2C(=O)N1NC1=NCCN1 | inactive: > 100 µM |
| COC(=O)/C(=N/NC(C)(C)C)C(C(=O)OC)C(=O)C(=O)Nc1nc2ccc([N+](=O)[O-])cc2s1 (configuration not stated) | inactive: > 100 µM |
| O=C(O)C1(C(=O)O)CCN(S(=O)(=O)c2ccccc2)CC1 | inactive: > 100 µM |
| O=C(O)CN1CCNCCNCC1 | inactive: > 100 µM |
| CC1=C(C(=O)Nc2ccccc2)C(c2ccc(C(C)C)cc2)C(C(=O)Nc2ccccc2)=C(C)N1 | inactive: 30.5 µM |
| O=C(CCCN1CCC2(CC1)NC(=O)c1ccccc1O2)c1ccc(F)cc1 | inactive: > 100 µM |
| O=C1/C(=C/c2ccc(Cl)cc2)CCC1CNc1ccc(Cl)cc1 (configuration not stated) | inactive: 16 µM |
| Oc1c(/N=N/c2ccccc2)c2ccccc2c2ccc3ccccc3c12 | inactive: > 100 µM |
| COc1cc(CO)cc2c1[nH]c1ccccc12 [KOENOLINE] | inactive: > 25 µM |
| Cc1ccc(S(=O)(=O)N/C(=C\C=C\c2ccccc2)C(=O)C(C)(C)C)cc1 | inactive: 26.7 µM |
| COc1cc2[nH]c(=O)[nH]c2c2c(C)c[nH]c12 | inactive: > 100 µM |
| O=C(NNCC(F)(F)F)c1ccncc1 | inactive: > 100 µM |
| Cc1ccc(-c2cc(-c3ccc(Cl)cc3)nc(/N=C3\C(=O)N(CN4CCOCC4)c4ccccc43)n2)cc1 | inactive: 27.9 µM |
| O=C(/C=C/c1ccccc1Br)c1ccccc1 | inactive: 14.8 µM |

| Compound | GI50 |
| --- | --- |
| Cc1ccc(C(=O)Nc2ccc(S(=O)(=O)O)c3cc(S(=O)(=O)O)cc(S(=O)(=O)O)c23)cc1N | inactive: > 100 µM |
| COc1cccc(N2C(=O)[C@H]3CC(C)c4c([nH]c5ccccc45)[C@H]3C2=O)c1 (some centres not stated) | inactive: 91.6 µM |
| COCCOc1cc(C)cc(/C=C(C)/C=C/C2=C(C)CCCC2(C)C)n1 | inactive: > 100 µM |
| O=C(O)c1c(O)c2cc(Br)ccc2oc1=O | inactive: 60.3 µM |
| Cc1ccc(S(=O)(=O)N(CC(O)COc2ccccc2)c2ccccc2Cl)cc1 (configuration not stated) | inactive: 19.1 µM |
| COc1ccc(N[C@H](C[S+]([O-])c2ccc(C)cc2)c2ccc(F)cc2)cc1 (some centres not stated) | inactive: > 100 µM |
| Clc1ccc(Nc2nnc(CNc3ccc(-c4nnc(Nc5ccc(Cl)cc5)s4)cc3)s2)cc1 | inactive: 32.6 µM |
| Cc1cc(N(CCC#N)CCC#N)ccc1C(/N=N/c1ccccc1)=N\NC(=O)c1cc(Cl)ccc1O | inactive: 30.5 µM |
| O=[N+]([O-])c1ccc(Cl)cc1C1ON=C(c2ccccc2)N1C12CC3CC(CC(C3)C1)C2 (configuration not stated) | inactive: > 100 µM |
| CCN(CC)CCCNC(=O)c1cc(-c2nccn2C)nc2ccccc12 | inactive: > 100 µM |
| Cc1ccc2c3c(cnc2n1)C(=O)OCCN3C | inactive: > 100 µM |
| C=C1C[C@@H](O)[C@@H](Br)C(C)(C)[C@]12CCC(C)(Cl)C(Br)C2 (some centres not stated) | inactive: 32 µM |
| CCCCCCCCCC(=O)OCC1(CO)C/C(=C/CC(C(C)C)C(C)C)C(=O)O1 (configuration not stated) | inactive: 66.8 µM |
| C[C@]12CCC(=O)C=C1CC[C@@H]1C2CC[C@]2(C)NC(=O)C(C#N)CC12 (some centres not stated) | inactive: > 100 µM |
| C/C1=C/C2=CC(C)C[C@@H]2C(=O)[C@]2(C)C(=O)CC(C)(C)[C@H]2CC1=O (some centres not stated) | inactive: > 50 µM |
| CCOC(=O)/C(=C\NC(N)=S)C(=O)c1ccccc1 | inactive: > 100 µM |
| CC1OC(OC2C(O)COC(OC3C(C)OC(OC4C(OC(=O)[C@]56CCC(C)(C)C[C@@H]5C5=CCC7[C@@]8(C)C[C@H](O)[C@H](OC9OC(CO)C(O)C(OC%10OC(CO)C(O)C(O)C%10O)C9O)[C@@](C)(CO)[C@@H]8CC[C@@]7(C)[C@]5(C)CC6)OCC(O)C4O)C(O)C3O)C2O)C(O)C(O)C1O (some centres not stated) | inactive: 16.4 µM |
| NNC1=N/C(=C\c2ccccc2O)C(=O)N1 | inactive: 44.4 µM |
| CCCCCCCCC/C=C1\CCC(CN(C)C)C1=O (configuration not stated) | inactive: 3.56 µM |
| Cn1c(=O)n(-c2c3ccccc3c(Cl)c3ccccc23)n(C(C)(C)C)c1=O | inactive: > 100 µM |
| COc1ccc(C2Cc3cc(OC)c(OC)c(OC)c3C2)cc1 (configuration not stated) | inactive: 37.2 µM |
| CS(=O)(=O)N1CC(CCl)c2ccc(NO)cc21 (configuration not stated) | inactive: 26.2 µM |
| CC(C)C1=CC23CCC4C(C)(C(=O)O)CCCC4(C)C2CC1C1C(=O)N(c2ccc(C(=O)O)cc2)C(=O)C13 (configuration not stated) | inactive: > 100 µM |

| Compound | GI50 |
| --- | --- |
| CN1CCC(O)C(CNC23CC4CC(CC(C4)C2)C3)C1 (configuration not stated) | inactive: > 100 µM |
| CN(C)/C=N/c1cc(=O)n(C)c(=O)n1C | inactive: > 100 µM |
| CC(C)CC(NC(=O)OC(C)(C)C)C(=O)N1CCCC1C(=O)OCc1ccccc1 (stereo not drawn) (Boc-Leu-Pro-OBn; configuration not given here) | inactive: > 100 µM |
| N#Cc1c(-c2ccc(Cl)cc2)cc(-c2ccc(Nc3ccnc4cc(C(F)(F)F)ccc34)cc2)[nH]c1=O | inactive: 41.5 µM |
| COC(=O)c1c(O)ccc2c1c1c(n2Cc2ccc(Cl)cc2Cl)C(=O)c2ccccc2C1 | inactive: > 100 µM |
| COc1ccc2c(c1)O[C@@H]1[C@@H](OC3OC(CO)C(O)C(O)C3O)Oc3cc(OC)c(OC)cc3[C@]1(O)C2=O (some centres not stated) | inactive: > 100 µM |
| CC(NC(=O)Cc1ccccc1)NC(=O)C(C)C(=O)NCc1ccccc1 (configuration not stated) | inactive: > 100 µM |
| CCN(CC)CCNc1n[n+]([O-])c2cc([N+](=O)[O-])ccc2[n+]1[O-] | inactive: 2.24 µM |
| O=C(NO)NCCCl | inactive: > 100 µM |
| CCOC(=O)c1cc(-c2ccn(C(C)=O)c2)c(-c2cc(C)co2)[nH]1 | inactive: > 100 µM |
| COc1cccc(-c2nc(-c3cnccn3)n(COCCO)n2)c1 | inactive: > 100 µM |
| FC(F)(F)C1(Cl)C(c2ccccc2)=C1c1ccccc1 | inactive: 17.9 µM |
| CC(=NNC(=S)Nc1ccccc1C)c1cccc(C(C)=NNC(=S)Nc2ccccc2C)n1 | inactive: 6.55 µM |
| COC(=O)C(C(=O)C(=O)Nc1c(C)cccc1C)c1cnc2ccccc2n1 (configuration not stated) | inactive: > 100 µM |
| NCCNCc1c2ccccc2c(CNCCN)c2ccccc12 | inactive: 12.7 µM |
| COC(=O)c1cnc(Cl)cn1 | inactive: 30.1 µM |
| O=C(/C=C/c1cccs1)c1ccccc1Cl | inactive: 15.1 µM |
| O=C1CSC(c2ccccc2O)N1c1nc2cc3sc(N4C(=O)CSC4c4ccccc4O)nc3cc2s1 (configuration not stated) | inactive: > 88.3 µM |
| Cc1cc2nc3c(C(OC4OC(CO)C(O)C(O)C4O)C(O)CO)nn(-c4ccc(F)cc4)c3nc2cc1C (configuration not stated) | inactive: > 100 µM |
| C=CC1(c2ccc3ccccc3c2)OCC(CC)O1 (configuration not stated) | inactive: > 100 µM |
| ClCc1nc2cc(Cl)ccc2o1 | inactive: 13.4 µM |
| CCOC(=O)C(C)(C)Oc1ccc(/C=C/C(=O)c2ccc(Cl)cc2)cc1 | inactive: 47.2 µM |
| COc1cc(/N=C\N(C)C)c2ncccc2c1 | inactive: > 100 µM |

| Compound | GI50 |
| --- | --- |
| COc1ccc(/C=C2\N=C3NC(=O)C(N4CCCCC4)=C(N)N3C2=O)cc1 | inactive: > 100 µM |
| Cc1ncc([N+](=O)[O-])n1CCNC(=O)CCn1ccnc1[N+](=O)[O-] | inactive: > 100 µM |
| Clc1ccc(CCN2CCN(CCCc3ccccc3)CC2)cc1Cl | inactive: 18.7 µM |
| BrC1(Br)C2/C=C\CCCCC21 (configuration not stated) | inactive: > 100 µM |
| CC(C)=CCC/C(C)=C/CC/C(C)=C/CC(CO)N(C)CC/C=C(\C)CCC=C(C)C (configuration not stated) | inactive: 5.78 µM |
| Cc1noc(/N=C2\C=C(O)C(=O)c3ccccc32)c1C | inactive: 12.9 µM |
| N=C(NC(=N)Nc1ccc(S(=O)(=O)Nc2cnc3ccccc3n2)cc1)Nc1ccc(Br)cc1 | inactive: > 100 µM |
| Cc1c(O)c(OC2OC(CO)C(O)C(O)C2O)cc2c1C=C[C@@H]1[C@@]2(C)C(=O)C[C@]2(C)[C@@H]([C@@](C)(O)C(=O)CCC(C)(C)O)[C@H](O)C[C@@]12C (some centres not stated) | inactive: 25.4 µM |
| COc1cc2cc3c4cc(OC)c(OC)cc4cc[n+]3cc2cc1OC | inactive: > 100 µM |
| O=C1C(NCCF)=C(Cl)C(=O)c2ncccc21 | active: 1.04 µM |
| Cn1cnc2[nH]c(=O)[nH]c(=S)c21 | inactive: > 100 µM |
| CCOC(=O)C(Cc1ccc(OC(=O)c2ccc(OC)cc2)cc1)NC(=O)C(F)(F)F (configuration not stated) | inactive: > 100 µM |
| CN(C)c1n/c(=N/Cc2cccs2)ss1 | inactive: > 10 µM |
| CCOC(=O)Nc1c(C#N)[n+]([O-])c2cc(Cl)c(Cl)cc2[n+]1[O-] | inactive: 22.7 µM |
| COc1ccc2[nH]c3nnc(N)c-3nc2c1 | inactive: 11 µM |
| [O-][n+]1c2c([n+]([O-])c3ccccc31)-c1cccc3cccc-2c13 | inactive: > 100 µM |
| O=C1NC2(CCCC2)C2CCCCC12O (configuration not stated) | inactive: > 100 µM |
| Cc1cc(=O)n(-c2ccccc2)c(=O)o1 | inactive: > 100 µM |
| C#C[C@]1(O)CCC2C3CCc4cc(Oc5nc(F)nc(-n6c(C)nc7cc8ccccc8cc76)n5)ccc4C3CCC21C (some centres not stated) | inactive: > 100 µM |
| CC(=O)Oc1ccc(-c2cc3ccccc3oc2=O)cc1OC(C)=O | inactive: 24 µM |
| COc1cc2c(cc1OC)C(N)CC2=O (configuration not stated) | inactive: > 100 µM |
| CCOC(=O)C(c1c[nH]c2ccccc12)(c1c[nH]c2ccccc12)c1c[nH]c2ccccc12 | inactive: 25.9 µM |
| NC(=O)N/N=C1/CCC(O)CC1CC(=O)O (configuration not stated) | inactive: > 100 µM |

Reference: ChEMBL document CHEMBL1201862, “PubChem BioAssay data set” (2004)
